{
  "source": "the RNAGym collection of RNA variant scans (doi:10.1073/pnas.2313332121)",
  "parents": {"B1": {"name": "TPR 5TU (parent)", "chain": "GGAUCUUCUCGAUCUAACAAAAAAGACAAAUCUGCCACAAAGCUUGAGAGCAUCUUCGGAUGCAGAGGCGGCAGCCUUCGGUGGCGCGAUAGCGCCAACGUUCUCAACUAUGACACGCAAAACGCGUGCUCCGUUGAAUGGAGUUUAUCAUG"}},
  "note": "Variants at the background level are over-represented here.",
  "data": [
    {"variants_of": "B1", "experiment": "polymerase ribozyme fitness, log enrichment relative to wild type (log ratio); higher = more active; in vitro selection for triplet polymerase activity", "outline": "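Each subunit of a heterodimeric triplet polymerase ribozyme was represented by a PCR-built, transcribed mutant library that underwent triplicate single-round in vitro selection with frozen incubation at −7 °C. Extended constructs were recovered by gel excision, streptavidin-bead capture and RT-PCR, and Illumina sequencing of input and output libraries kept genotypes with ≥10 input reads and ≥1 read per output. Fitness is the logarithm of genotype enrichment relative to wild-type enrichment, from inverse-variance-weighted replicate averages, with a logarithm base of 2.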", "values": [
      {"variant": "UGAUCUUCUCGAUCUAACAAAAAAGACAAAUCUGCCACAAAGCUUGAGAGCAUCUUCGGAUGCAGAGGCGGCAGCCUUCGGUGGCGCGAUAGCGCCAACGUUCUCAACUAUGACACGCAAAACGCGUGCUCCGUUGAAUGGAGUUUAUCAUG", "polymerase ribozyme fitness (log ratio)": 0.22},
      {"variant": "GGCUCUUCUCGGUCUAGCAAACUAGACAAAUCUGCCACAAAGCUUGAGAGCAUCUUCGGAUGCAGAGGCGGCAGCAUUCGGUGGCGCGAUCGCGCCAACGUUCUCAACUAUGACACGCAAAACGCGUGCUCCGUUGAAUGGAGUUUAUCAUG", "polymerase ribozyme fitness (log ratio)": "≤ -4.2"},
      {"variant": "GGCUCUUCUCGGUCUAACAAAAAAGAGAGAUCUGCCACAAAGCUUGAAUGCAUCUUCGGAUGCCGAGGCGGCAGCCUUCGGUGGCGCGAUAGCGCCAAUGUUCUCAACUAUGACACGCAAAACGCGUGCUCCGUUGAAUGGAGUUUAUCAUG", "polymerase ribozyme fitness (log ratio)": "≤ -4.2"},
      {"variant": "GGCUCUUCUCGGUCUAACAAAAAAGACAAAUCUGCCACAAAGCUUGAGAGCAUCUUCGGAUGCAGAGGCGGCAGCCUUCGGUGGCGAGAUAGCGCCAACGUUCUCAACUAUGACACGCAAAACGCGUGCUCCGUGGAAUGUAGUUUAUCAUG", "polymerase ribozyme fitness (log ratio)": "≤ -4.2"},
      {"variant": "GGCUCUUCUCGUUCUAACAAAAAAGACAAAUCUGCCCCAAAGCUUGAGAGCAUCUGUGGAUGCAGAGUCGGCAGGCUUCGGUGACGCGAUAGCGCCAACGUUCUCAACUAUGACACGCAAAACGCGUGGUCCGUUGAAUGGAGUUUAUCAUG", "polymerase ribozyme fitness (log ratio)": "≤ -4.2"},
      {"variant": "GGCUCUUCUCGUUCUAACAAAAAAGACAAAUCUGCCACAAAGCUUGAGGGCAUCUUCGAAUGCAGAGGCGGGAGCCUUCGGUGGCGCCAUAGCGCCAACGUUCUCAACUAUGACACGCAAAACGCGUGCUCCGUUGAAUGGAGUUUAUCAUG", "polymerase ribozyme fitness (log ratio)": "≤ -4.2"},
      {"variant": "GGCUCUUCUCGAUCUGACAAAAAUGACAAAUCUGCCACAAAGCUUGAUAGCAUCUUCGGAUGCAGAGGCGGCAUCCUUCGGUAGCGCGAUAGCGCCAACGUUCUCACCUAUGACACGCAAAACGCGUGCACCGUUGAAUGGAGUUUAUCAUG", "polymerase ribozyme fitness (log ratio)": "≤ -4.2"},
      {"variant": "GGCUCUUCUCGAUCUAGCAAAAAAGACAAAUCUGCCACAAAGCUUGAGAGCAUCUUCGGAUGCAGAGGGGGCAGCCUUCGGUGGCGCGAUAGCGCCAACGUUCUCAACUAUGACAGGCAAAGCGCGUGCUCCGUUGAAUGGAGUUUAUCAUG", "polymerase ribozyme fitness (log ratio)": -1.99},
      {"variant": "GGCUCUUCUCGAUCUAUCAAAAAAGACAAAUCUGCCACAAAGCUUGAGUGCAUCUUCUGAUGCAGAGGCGGCUGCCUUCGGUGGCGCGAUAGCGCCAACGUUCUCAACUAUGACACGCAAAACGCGCGCUCCAUCGAAUGGAGGUUAUCAUG", "polymerase ribozyme fitness (log ratio)": "≤ -4.2"},
      {"variant": "GGCUCUUCUCGAUCUAACCAAAAAGACAAAUCUGCCACAUAGCUUGUGCGCAUCUUCGGAUGCAGAGGCGGCAGCCUUCGGUGGCGCGACAGCGCCAACGUUCUCAACGAUGACACGCAAGACGCGUGCUCCGUUGAAUGGAGUUUAUCAUG", "polymerase ribozyme fitness (log ratio)": "≤ -4.2"},
      {"variant": "GGCUCUUCUCGAUCUAACCAAAAAGACAAAUCUGCCACAAAGCUUCAGAGCAUCUUCGGAUGCAUAGGCGGCAGUCUUCGGUGGCGCGAUAGCGCCAACGUUCUGACCUAUGACACGCAAAACGCGUGCUCCGUUGAAUGGAGUUUAUCCUG", "polymerase ribozyme fitness (log ratio)": "≤ -4.2"},
      {"variant": "GGCUCUUCUCGAUCUAACGAAAAAGACAAAUCUGCCACAAAGCUUGAGAGCCGCUUCGGAUGCAGACGCGGUAGCCUUCGGUGGCGCGAUAGGGCCAACGUUCUCAUCUAUGACACGCAAAACGCGUGCUCCGUUGAUUGGAGUUUAUCAUU", "polymerase ribozyme fitness (log ratio)": "≤ -4.2"},
      {"variant": "GGCUCUUCUCGAUCUAACACAAAAGACAAAUCUGCCAUAACGCUUGAGAGCAACUUCGGAUGCAGAGGCGACAGCCUUCGGUGGCGCGAUAGAUCCAACGUUCUCAACUAUGACACGCAAAACGCCUGCUCCGUUGAAUGGAGUUUAUCAUG", "polymerase ribozyme fitness (log ratio)": "≤ -4.2"},
      {"variant": "GGCUCUUCUCGAUCUAACAGAAAAGACAAAUCUGCCACAAAGCUUGAGAGCAUCUUCGGAUGCAGAGGCGGCAGCUUUCGGUGGCGGGAUAGCGCCAACGUUCUCAACGAUGACACGCAAAACGCGUGCUCCGUUGAAUGGCGUUUAACAUG", "polymerase ribozyme fitness (log ratio)": "≤ -4.2"},
      {"variant": "GGCUCUUCUCGAUCUAACAUAAAAGACAAAUCUGCCACAAAGCUUGAGAGCAUCUUCGGAUGUAGAGGCGGCAGCCUUAGGUGGCGCGAUAGCGCCAACGUUAUCAACUAUGACACGCAAAACGCGUGCUCCGUUGAAUGGAGUUUAUAGUG", "polymerase ribozyme fitness (log ratio)": "≤ -4.2"},
      {"variant": "GGCUCUUCUCGAUCUAACAACAAAGACAAAUUUGCCACAAAGCUUGAGAGCAUCUUCGGAUGCAGAGGCGGUAGCCUUCGGUGGCGCGAUAGCGCCAACGUUCUCAACUAUGACACGCAAAACGCGUGCUCCGUUCAAUGGAGUUUAUCAUG", "polymerase ribozyme fitness (log ratio)": "≤ -4.2"},
      {"variant": "GGCUCUUCUCGAUCUAACAAAUAAGACAAAUCUGCCACAACGCUUGAGAGCAUCUUCGGAUGCAGAGGCGGCAGCCUUCGGUGACACGAUAGCGCCAACGUUCUCAACUAUGACACGCAAAACGCGUGCUCCGUUGAAUGGAGUUUAUCAUG", "polymerase ribozyme fitness (log ratio)": "≤ -4.2"},
      {"variant": "GGCUCUUCUCGAUCUAACAAAUAAGACAAAUCUGCCACAAAGCUUGAGUGCGUCUACGGAUGCAGAGGCGGCAGCCUUCGGUGGCGCGAUAGCGCCAACGUUCUCAACUAUGACACGCAAAACGCGUGCUCCGUUGAAUGGAGUUUAUCAUG", "polymerase ribozyme fitness (log ratio)": -3.02},
      {"variant": "GGCUCUUCUCGAUCUAACAAAUAAGACAAAUCUGCCACAAAGCUUGAGAGCAUCUUCGGAUGCAGAGGCGGCAGCCUUCGGUGGCGCGAUUUCGCCAACGUUCUCAACUAUGACACGCAAAACGCGUGCUCCGUUGAAUGGACUUUAUCAUG", "polymerase ribozyme fitness (log ratio)": "≤ -4.2"}
    ]}
  ]
}
